Results as given in PubChem BioAssay AID493208 (National Center for Advancing Translational Sciences (NCATS), 2011).
Screen size: about 44,000 compounds; about 340 (0.77%) were called active. Not shown: some 5% with an inconclusive outcome. Calls come from the whole dose curve; as a rule, active = well fitted inhibition curve with a large enough effect; inconclusive = small, poorly fitted or top-dose-only effect; inactive = flat fitted curve, though single readings scatter. Some of the results follow.

Test: Acumen qHTS Assay for Inhibitors of the mTORC1 Signaling Pathway in MEF (Tsc2-/-, p53-/-) Cells: Sytravon; note: nearly all actives have a fitted effect of over 50% in size;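 for activity change, negative = inhibition: plate controls were DMSO for no effect and rapamycin for full effect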
Conditions: phospho-rpS6 immunofluorescence/PI, 24 h; series mostly up to 38.3 µM; activity change, negative = inhibition: at the top concentration
Procedure, shortened: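 Compounds act on Tsc2-/-, p53-/- fibroblasts carrying an empty vector for 24 h before fixation and dual staining for phospho-S6 and DNA (propidium iodide). Values are percentages of cells above a rapamycin-defined pS6/PI threshold.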
Potency is the fitted concentration of half-maximal effect.

Question: With `Cc1ccc(-n2ncc(C(=O)N3CCN(c4ccccn4)CC3)c2C2CCN(C(=O)OC(C)(C)C)CC2)cc1C` as the compound, how does the “activity change, negative = inhibition” value read?
Answer: The value was inactive: -2.52%.

Question: For `Cc1cc(=O)oc2c3c(ccc12)OCN(Cc1ccccc1Cl)C3`, which “activity change, negative = inhibition” value is on record?
Answer: The value was inactive: -3.58%.

Question: With `Cc1cccc(CS(=O)(=O)CC2Nc3ccc(C(=O)NCc4ccccc4)cc3NC2=O)c1` (stereo not drawn) as the compound, how does the “activity change, negative = inhibition” value read?
Answer: Its value is inactive: 4.66%.

Question: For `O=S(=O)(NCc1ccc(F)cc1)c1ccc2[nH]c3c(c2c1)CCCCC3`, which “activity change, negative = inhibition” value is on record?
Answer: The value was inactive: 9.8%.

Question: Which “activity change, negative = inhibition” value does the source give for `CCOC(=O)c1nc(Nc2ccc(OC)cc2)c2ccccc2n1` here?
Answer: The value was inactive: 4.25%.

Question: For `Cc1ccccc1Nc1c(-c2cccc(O)c2)nc2ccc(Br)cn12`, which “activity change, negative = inhibition” value is on record?
Answer: Its value is inactive: -25.1%.

Question: For `CC(C)CCNC(=O)c1ccc(Cn2c(=O)c3cccn3c3cccnc32)cc1`, which “activity change, negative = inhibition” value is on record?
Answer: Its value is inactive: 1.56%.

Question: Which “activity change, negative = inhibition” value does the source give for `Cc1ccc(-c2nn(-c3cccc([N+](=O)[O-])c3)c3c2cnc2ccc(F)cc23)cc1` here?
Answer: The value was inactive: 0%.

Question: For `CCOc1ccc(CNC(=O)c2ccc3c(c2)sc2nc(-c4ccc(OC)cc4)cn23)cc1`, which “activity change, negative = inhibition” value is on record?
Answer: Its value is inactive: -16.2%.

Question: Which “activity change, negative = inhibition” value does the source give for `COc1cc(OC)c(NC(=O)CSC2=Nc3ccccc3N=C(c3ccc(F)cc3)C2)cc1Cl` here?
Answer: The value was inactive: -1.97%.

Question: With `Cc1cccc(Nc2nc(Nc3cccc(C)c3)nc(N3CCOCC3)n2)c1` as the compound, how does the Potency read?
Answer: The Potency was active: 1170 nM.

Question: Which “activity change, negative = inhibition” value does the source give for `Cc1cc2c(n1-c1ccc(C(=O)NCC(C)c3ccccc3)cc1)CCCC2` (stereo not drawn) here?
Answer: The value was inactive: -6.73%.

Question: For `Cc1sc(C2C(C#N)=C(N)N(c3cccc(Cl)c3)C3=C2C(=O)CCC3)cc1CN1CCOCC1` (stereo not drawn), which “activity change, negative = inhibition” value is on record?
Answer: The value was inactive: 4.93%.

Question: With `COc1ccc(-c2n[nH]c3c2C(c2ccc(Cl)cc2Cl)NC3=O)cc1` (stereo not drawn) as the compound, how does the “activity change, negative = inhibition” value read?
Answer: The value was inactive: -27.9%.

Question: Which “activity change, negative = inhibition” value does the source give for `COc1ccc(-n2c(=O)c3c(c4cc(OC)ccc4n3C)n(CC(=O)NCC3CCCO3)c2=O)cc1` (stereo not drawn) here?
Answer: Its value is inactive: 0.202%.

Question: For `CCN(CCCNC(=O)c1ccc(Sc2ccc(C)cc2)c(NC(C)=O)c1)c1cccc(C)c1`, which “activity change, negative = inhibition” value is on record?
Answer: Its value is inactive: 6.53%.

Question: With `CCOc1cccc(C(=O)Nc2ccc3oc(-c4ccc(C(C)(C)C)cc4)nc3c2)c1` as the compound, how does the “activity change, negative = inhibition” value read?
Answer: Its value is inactive: -23.4%.

Question: With `Cc1ccc2oc(-c3ccc(C)c(NC(=O)c4ccc5c(c4)OCCO5)c3)nc2c1` as the compound, how does the “activity change, negative = inhibition” value read?
Answer: Its value is inactive: -2.37%.

Question: With `Cc1ccc(F)cc1NC(=O)CCc1c(C)nn(-c2ccc(N3CCCCC3)nn2)c1C` as the compound, how does the “activity change, negative = inhibition” value read?
Answer: The value was inactive: -1.44%.

Question: For `CC(CCO)Nc1nc2c(c(=O)n(C)c(=O)n2C)n1Cc1ccc(Br)cc1` (stereo not drawn), which “activity change, negative = inhibition” value is on record?
Answer: Its value is inactive: -3.69%.

Question: Which “activity change, negative = inhibition” value does the source give for `C#CCSc1nc2sc3c(c2c(=O)n1-c1cccc(OC)c1)CCN(C(C)=O)C3` here?
Answer: The value was inactive: -2.57%.

Question: Which “activity change, negative = inhibition” value does the source give for `Cc1ccc(S(=O)(=O)Nc2ccc(-c3ccc(N4CCCCCC4)nn3)cc2)cc1C` here?
Answer: Its value is inactive: 1.77%.

Question: For `CCOC(=O)c1ccc(-c2ccc(/C=C(\C#N)C(=O)Nc3c(C)cccc3Cl)o2)cc1`, which “activity change, negative = inhibition” value is on record?
Answer: The value was inactive: -2.24%.

Question: With `COc1cc(Cl)c(NC(=O)c2cc(S(=O)(=O)N3CCOCC3)cn2C)c(OC)c1` as the compound, how does the “activity change, negative = inhibition” value read?
Answer: Its value is inactive: 1.96%.

Question: Which “activity change, negative = inhibition” value does the source give for `CCc1nn2c(-c3ccco3)ccnc2c1-c1ccc(F)cc1` here?
Answer: The value was inactive: -0.229%.

Question: For `CC(C)(C)NC(=O)Cn1cc(S(=O)(=O)Cc2ccc(F)cc2)c2ccccc21`, which “activity change, negative = inhibition” value is on record?
Answer: Its value is inactive: 0.638%.

Question: Which “activity change, negative = inhibition” value does the source give for `CC1CCN(c2ccc(-c3cccc(NS(=O)(=O)c4ccc(Cl)s4)c3)nn2)CC1` here?
Answer: Its value is inactive: 0%.

Question: With `CCCOc1ccc(-c2nonc2NC(=O)COc2ccc(C)cc2)cc1OCCC` as the compound, how does the “activity change, negative = inhibition” value read?
Answer: The value was inactive: 2.34%.

Question: With `COCCn1c(SCC(=O)c2ccc(OC)cc2)nc2cc(C(=O)NC3CCCC3)ccc2c1=O` as the compound, how does the “activity change, negative = inhibition” value read?
Answer: Its value is inactive: -1.63%.

Question: For `CCOC(=O)CNC(c1ccccc1)c1cc(Br)ccc1NC(=O)c1ccc(Cl)cc1` (stereo not drawn), which “activity change, negative = inhibition” value is on record?
Answer: The value was inactive: 1.62%.

Question: With `Cc1ccc(S(=O)(=O)c2nnn(CC(=O)Nc3ccccc3C)c2N)cc1C` as the compound, how does the “activity change, negative = inhibition” value read?
Answer: The value was inactive: -6.61%.

Question: Which “activity change, negative = inhibition” value does the source give for `CCC(=O)Nc1ccc2nc(SCCOc3cccc(C)c3)sc2c1` here?
Answer: The value was inactive: -3.32%.

Question: For `O=C(CCC1N=C2c3ccccc3N=C(SCc3ccccc3Cl)N2C1=O)NCc1cccs1` (stereo not drawn), which “activity change, negative = inhibition” value is on record?
Answer: Its value is inactive: 1.2%.

Question: For `O=C(NCc1ccccc1F)C(=O)NCC(c1cccs1)S(=O)(=O)c1cccs1` (stereo not drawn), which “activity change, negative = inhibition” value is on record?
Answer: Its value is inactive: -0.995%.

Question: With `CCOc1ccc(OCC)c(NC(=O)c2cnc3c(-c4ccccc4)c(C)nn3c2C)c1` as the compound, how does the “activity change, negative = inhibition” value read?
Answer: The value was inactive: 2.04%.

Question: Which “activity change, negative = inhibition” value does the source give for `CC(C)Cc1ccc(S(=O)(=O)Nc2ccc3[nH]c(=O)[nH]c3c2)cc1` here?
Answer: The value was inactive: -11.2%.

Question: For `COC(=O)c1cc2oc(C)cc2n1Cc1cccc(Cl)c1`, which “activity change, negative = inhibition” value is on record?
Answer: Its value is inactive: -16.8%.

Question: With `Cc1ccc(-n2c(=O)c3c(c4cc(C)ccc4n3C)n(CC(=O)NCCC3=CCCCC3)c2=O)cc1` as the compound, how does the “activity change, negative = inhibition” value read?
Answer: The value was inactive: 0.52%.

Question: With `O=c1c2oc3ccccc3c2n(Cc2cccc(Cl)c2)c(=O)n1Cc1ccc2c(c1)OCO2` as the compound, how does the “activity change, negative = inhibition” value read?
Answer: The value was inactive: 1.52%.

Question: Which “activity change, negative = inhibition” value does the source give for `COc1ccccc1OCC(=O)NCC1(N2CCOCC2)CCCCC1` here?
Answer: The value was inactive: 1.22%.

Question: Which “activity change, negative = inhibition” value does the source give for `O=C(NCc1cccc(Cl)c1)c1ccc(CS(=O)Cc2ccccc2Cl)o1` (stereo not drawn) here?
Answer: The value was inactive: -14.9%.

Question: For `O=c1oc2c(F)cc(F)cc2cc1S(=O)(=O)c1ccc(F)cc1`, which “activity change, negative = inhibition” value is on record?
Answer: The value was inactive: 1.27%.

Question: Which “activity change, negative = inhibition” value does the source give for `Cc1ccc(Cc2nc3ccccc3nc2SCC(=O)N2CCCCC2)cc1` here?
Answer: The value was inactive: -3.29%.

Question: With `Cc1nc(C)c(CCNS(=O)(=O)c2ccc(C)c(C)c2)s1` as the compound, how does the “activity change, negative = inhibition” value read?
Answer: The value was inactive: -15.7%.

Question: For `CCOc1ccccc1NC(=O)c1c(NCc2ccc(C)o2)sc2c1CCCCC2`, which “activity change, negative = inhibition” value is on record?
Answer: Its value is inactive: -10.1%.

Question: For `CCOc1ccc(N(CC)C(=O)c2cc3c(=O)oc4ccccc4c3s2)cc1`, which “activity change, negative = inhibition” value is on record?
Answer: Its value is inactive: 3.16%.

Question: For `CCOc1ccc(CN2CCN(S(=O)(=O)c3ccc(Cl)cc3)CC2)cc1`, which “activity change, negative = inhibition” value is on record?
Answer: Its value is inactive: 13.9%.

Question: With `Cc1oc(-c2ccccc2F)nc1CN1CCC(C(=O)NCCc2ccc(Cl)cc2)CC1` as the compound, how does the “activity change, negative = inhibition” value read?
Answer: Its value is inactive: -6.76%.
